{"source": "PubChem BioAssay AID1030", "about": "(National Center for Advancing Translational Sciences (NCATS), 2008)", "note": "Among all 220,000 compounds or so, about 16,000 (7.3%) were called active. The inconclusive results got no clear call from the source; some entries with a clear call stand among them for comparison. Calls follow the shape of the dose curve; as a rule, active = well fitted inhibition curve with a large enough effect (not every such curve was filed as active); inconclusive = small, poorly fitted or top-dose-only effect, or another doubt; inactive = no such curve, though single readings can be large or run the other way. No potency is given beside an inconclusive call; the fits are too rough. Potency is read from the fitted curve at half-maximal effect; tags tell the direction and shape of the fitted curve."}
{"biological_target": "Aldehyde dehydrogenase 1A1 (Homo sapiens) (UniProt P00352)", "sequence (P00352 whole entry, looked up)": "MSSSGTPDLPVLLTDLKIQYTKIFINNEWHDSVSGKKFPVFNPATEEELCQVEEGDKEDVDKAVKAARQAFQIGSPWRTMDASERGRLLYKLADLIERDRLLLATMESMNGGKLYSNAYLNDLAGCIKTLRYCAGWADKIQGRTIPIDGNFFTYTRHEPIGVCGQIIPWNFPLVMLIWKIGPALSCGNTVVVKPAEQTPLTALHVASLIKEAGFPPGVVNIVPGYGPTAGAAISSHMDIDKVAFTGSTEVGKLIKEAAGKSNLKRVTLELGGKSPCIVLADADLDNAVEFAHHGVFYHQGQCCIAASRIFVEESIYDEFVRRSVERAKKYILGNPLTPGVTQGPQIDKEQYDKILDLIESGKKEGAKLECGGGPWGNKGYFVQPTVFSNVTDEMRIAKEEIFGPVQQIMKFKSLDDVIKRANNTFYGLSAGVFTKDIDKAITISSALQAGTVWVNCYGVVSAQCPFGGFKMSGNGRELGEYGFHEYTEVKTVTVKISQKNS", "test": "qHTS Assay for Inhibitors of Aldehyde Dehydrogenase 1 (ALDH1A1);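 as to activity, negative = inhibition: plate controls were no enzyme wells and a reference inhibitor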", "settings": "Purified ALDH1A1, NADH fluorescence, propionaldehyde substrate; series mostly up to 75.3 µM; activity, negative = inhibition: at the top concentration"}
{"smiles": "CC(C)(C)c1cnnn1-c1ccc([N+](=O)[O-])cc1", "activity, negative = inhibition": "inactive: 5.92%"}
{"smiles": "Oc1ccc(N=Nc2ccc3c(c2)OCCO3)c2cccnc12", "activity, negative = inhibition": "inactive: 0.889%"}
{"smiles": "O=C(/C=C/c1ccccc1Cl)NCc1ccco1", "Potency": "inconclusive [inhibitor, single point]"}
{"smiles": "COc1ccc(/C(O)=C2/C(=O)C(=O)N(CCN3CCOCC3)C2c2ccccn2)cc1OC", "note": "(stereo unspecified)", "Potency": "inconclusive [inhibitor, single point]"}
{"smiles": "C=CCn1c(C)cc(C(=O)COc2ccc(C)nc2[N+](=O)[O-])c1C", "Potency": "inconclusive [inhibitor, single point]"}
{"smiles": "COc1cc(C(=S)N2CCOCC2)cc(OC)c1OC(=O)c1cc([N+](=O)[O-])cc([N+](=O)[O-])c1", "Potency": "inconclusive [inhibitor, single point]"}
{"smiles": "Cc1noc(NS(=O)(=O)c2ccc(NC(=O)CSc3ncccn3)cc2)c1C", "Potency": "active: 20 µM"}
{"smiles": "COCCNC(=O)CCCn1c(=O)c2cc(OC)c(OC)cc2n(CC(=O)Nc2ccccc2OC)c1=O", "Potency": "inconclusive [inhibitor, single point]"}
{"smiles": "Cc1cc(OCc2nn[nH]n2)c2c(C)c(Cc3ccccc3)c(=O)oc2c1", "Potency": "inconclusive [inhibitor, partial curve]"}
{"smiles": "COC(=O)C1=C(C)N(CCCC(=O)O)C(=O)NC1c1cc2c(cc1[N+](=O)[O-])OCO2", "note": "(stereo unspecified)", "Potency": "inconclusive [inhibitor, single point]"}
{"smiles": "O=C(CN1CCCC1)Nc1c2c(cc3c1CCC3)CCC2", "Potency": "inconclusive [inhibitor, partial curve, poor fit]"}
{"smiles": "O=C(O)C1C2CCC(C2)C1C(=O)NCCC1=CCCCC1", "note": "(stereo unspecified)", "Potency": "inconclusive [inhibitor, single point]"}
{"smiles": "CC1=C(C(=O)OC2CCCC2)C(c2coc3ccccc3c2=O)C2=C(CC(C)(C)CC2=O)N1", "note": "(stereo unspecified)", "Potency": "inconclusive [inhibitor, single point]"}
{"smiles": "CSc1ccc(C(=O)C2CCCN(C(=O)c3ccsc3)C2)cc1", "note": "(stereo unspecified)", "Potency": "active: 5.01 µM"}
{"smiles": "CC1CCC(C(C)C)C(OC(=O)CSc2nccc(=O)[nH]2)C1", "note": "(stereo unspecified)", "Potency": "active: 25.1 µM"}
{"smiles": "Cc1cccc2cc(C(c3nnnn3CC3CCCO3)N3CCOCC3)c(=O)[nH]c12", "note": "(stereo unspecified)", "Potency": "inconclusive [inhibitor, single point]"}
{"smiles": "COC(=O)Nc1nnc(-c2ccncc2)s1", "Potency": "inconclusive [inhibitor, partial curve]"}
{"smiles": "COc1ccc(-c2ncccc2OC(=O)C23CC4CC(CC(C4)C2)C3)cc1", "Potency": "inconclusive [inhibitor, partial curve]"}
{"smiles": "CCOC(=O)c1cn(Cc2cccc(Cl)c2)c2cc(C)nn2c1=O", "Potency": "inconclusive [inhibitor, partial curve]"}
{"smiles": "CN(CC(=O)N1CCCCCC1)S(=O)(=O)c1cccc2cccnc12", "Potency": "inconclusive [inhibitor, partial curve]"}
{"smiles": "CC(=O)Nc1nc2n(n1)C(c1ccc(F)cc1)C=C(c1ccccc1)N2", "note": "(stereo unspecified)", "Potency": "inconclusive [inhibitor, partial curve]"}
{"smiles": "O=[N+]([O-])c1cccnc1N/N=C/c1ccccc1O", "Potency": "active: 89.1 µM"}
{"smiles": "CCCNc1cc(C)c(C#N)c2nc3ccccc3n12", "Potency": "inconclusive [inhibitor, full curve]"}
{"smiles": "CSc1nc(-c2ccccc2)c(-c2ccccc2)[nH]1", "Potency": "inconclusive [inhibitor, partial curve]"}
{"smiles": "COc1ccc(OCCC(=O)OCC(=O)NCCc2ccccc2)cc1", "Potency": "inconclusive [inhibitor, single point]"}
{"smiles": "Cc1cccc(C(=O)Nc2scc(CC(C)C)c2C(=O)O)c1", "Potency": "inconclusive [inhibitor, single point]"}
{"smiles": "CCn1c(SCC(=O)Nc2cc(C)on2)nc2sc3c(c2c1=O)CCCC3", "Potency": "inconclusive [inhibitor, single point]"}
{"smiles": "COC(=O)c1ccc(N)c(N=CC2=C(O)CC(C)(C)CC2=O)c1", "Potency": "active: 20 µM"}
{"smiles": "Cc1nn(-c2ccccc2Cl)c(Cl)c1/C=N/Nc1cccc(C(=O)O)c1", "Potency": "inconclusive [inhibitor, single point]"}
{"smiles": "CCC(=O)Nc1cccc(C(=O)/C=C/c2ccccc2)c1", "Potency": "inconclusive [inhibitor, single point]"}
{"smiles": "COc1ccc(C(=O)N/N=C(\\C)CC(=O)N2CCN(C=O)CC2)cc1", "Potency": "inconclusive [inhibitor, single point]"}
{"smiles": "CCCc1ccc(S(=O)(=O)NCCc2ccncc2)cc1", "Potency": "inconclusive [inhibitor, partial curve]"}
{"smiles": "Nc1nc(CN2CCN(Cc3ccccc3)CC2)nc(Nc2ccccc2)n1", "Potency": "inconclusive [inhibitor, single point]"}
{"smiles": "Cc1nc(SCC(=O)NC(=O)NCCC(C)C)c2c(-c3cccs3)csc2n1", "Potency": "inconclusive [inhibitor, single point]"}
{"smiles": "O=C(/C=C/C=C/c1ccccc1)CC1(O)C(=O)N(CCc2ccccc2)c2ccccc21", "note": "(stereo unspecified)", "Potency": "inconclusive [inhibitor, full curve]"}
{"smiles": "N#CCOC(=O)/C=C/c1ccc2c(c1)OCO2", "Potency": "inconclusive [inhibitor, single point]"}
{"smiles": "C/C(=N\\Nc1nc(N2CCCCC2)nc(N2CCOCC2)n1)c1cccs1", "Potency": "inconclusive [inhibitor, single point]"}
{"smiles": "COc1cc(C(=O)N2CCN(C(=O)c3ccco3)CC2)cc(OC)c1OC", "Potency": "inconclusive [inhibitor, single point]"}
{"smiles": "O=C(NCc1ccc(F)cc1Cl)C1CCN(S(=O)(=O)N2CCC3(CC2)OCCO3)CC1", "Potency": "inconclusive [inhibitor, partial curve, poor fit]"}
{"smiles": "CCN(CC)c1ccc(/C=C/C(=O)C2C(=O)C=C(C)OC2=O)cc1", "note": "(stereo unspecified)", "Potency": "active: 17.8 µM"}
{"smiles": "Cc1ccc2nc3c(cc(C(=O)NCC4CCCO4)c(=N)n3CCCOC(C)C)c(=O)n2c1", "note": "(stereo unspecified)", "Potency": "inconclusive [inhibitor, partial curve]"}
